# Inconclusive results, whose numbers are uncertain, are shown with a selection of clear calls. A call without a number means that no potency is given here. For some assays here: Where the call is inconclusive, the potency comes from a doubtful curve fit. Calls of active or inactive are those of the source. Unless noted, calls come from the whole dose curve; as a rule, active = well fitted curve in the direction sought with a large enough effect; inconclusive = small, poorly fitted or top-dose-only effect, or another doubt; inactive = no such curve, though single readings can be large; an effect the other way counts as inactive or inconclusive. Residues, ends and D or L forms follow the SMILES beside them. *: point of attachment. PhAc = O=C(Cc1ccccc1)*
# What was measured:
# [1] = Primary qHTS for inhibitors of nuclear receptor binding SET domain protein 2 (NSD2) in an isogenic RCH-ACV NSD2 p.E1099K mutant (9B) (AID 1645876); conditions: activity change, negative = viability loss: at 44.9 µM (top of the series) unless noted; note: nearly all actives have a fitted effect of over 70% in size
# Es-2 = experiment: Primary qHTS to identify gynecologic anti-cancer compounds using libraries of approved drugs and bioactive compounds (AID 1345084); conditions: Gynecologic cancer cell panel viability, ATPlite luminescence, 48 h; series mostly up to 57.5 µM; note: nearly all actives have a fitted effect of over 55% in size; note: potency is the fitted concentration of half-maximal effect
# Outline: (§1)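 Luminescence from the ATPlite ATP-monitoring reagent indicates viable cell number; lower signal means cytotoxicity. Cells received compound 16 h after seeding and were exposed for 48 h across five concentrations.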
# OV90 = experiment: as above; conditions: Gynecologic cancer cell panel viability, ATPlite luminescence, 48 h; series mostly up to 57.5 µM
# Outline: as §1
# [2] = P-glycoprotein substrates identified in KB-8-5-11 adenocarcinoma cell line, qHTS therapeutic library screen (AID 1346987); conditions: activity change, negative = cytotoxicity: at 44.5 µM (top of the series); note: nearly all actives have a fitted effect of over 65% in size
# Outline: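 KB-8-5-11: colchicine-selected sub-line of KB-3-1 over-expressing P-gp; assay medium lacked colchicine. 72 h drug exposure at 37 degree C, CellTiter-Glo.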
# [3] = Primary qHTS for inhibitors of nuclear receptor binding SET domain protein 2 (NSD2) in an RCH-ACV wild type WT cells (2C) (AID 1645877); conditions: activity change, negative = cell killing: at 44.9 µM (top of the series) unless noted; note: nearly all actives have a fitted effect of over 70% in size
# [4] = Primary fluorescence-based thiol-reactive (MSTI) qHTS assay for identification of artifact compounds. (AID 1845221); note: potency is the fitted concentration of half-maximal effect;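 note: thiol-reactive compounds lower the probe fluorescence signal; nearly all actives have a fitted effect of over 65% in size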
# Outline: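 Compounds were incubated 1 h at room temperature in the dark with the MSTI probe (4 uM) in PBS pH 7.4, 2% DMSO. Signals were normalized between Acetyl-MSTI and MSTI.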
# [5] = Primary redox qHTS assay for identification of artifact compounds. (AID 1845223); note: potency is the fitted concentration of half-maximal effect
# Outline: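 Amplex Red (25 uM) and HRP (250 mU/mL) in HBSS, with compounds for 15 min, then 250 uM DTT for 30 min, room temperature, dark. Fluorescence 525/598 nm read; normalized to DMSO and 10 uM DA3003; Hill fit.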
# SKOV3 = experiment: Primary qHTS to identify gynecologic anti-cancer compounds using libraries of approved drugs and bioactive compounds (AID 1345084); conditions: Gynecologic cancer cell panel viability, ATPlite luminescence, 48 h; series mostly up to 57.5 µM; note: nearly all actives have a fitted effect of over 55% in size; note: potency is the fitted concentration of half-maximal effect
# Outline: as §1
# PA-1 = experiment: as above; conditions: Gynecologic cancer cell panel viability, ATPlite luminescence, 48 h; series mostly up to 57.5 µM
# Outline: as §1
# Tov-21-G = experiment: as above; conditions: Gynecologic cancer cell panel viability, ATPlite luminescence, 48 h; series mostly up to 57.5 µM
# Outline: as §1
# [6] = tested on: Zika virus NS2B-NS3 protease (linked construct); experiment: Primary screen NINDS Rhodamine qHTS for Zika virus inhibitors (AID 1347160); note: nearly all actives have a fitted effect of over 55% in size; note: potency is the fitted concentration of half-maximal effect
# Outline: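 Percent inhibition, normalized to uninhibited and enzyme-free controls, is fitted to a 4-parameter Hill equation. Fluorescence change comes from a 15-min cleavage of 1.5 microM bis-peptide Rhodamine110 substrate by 25 nM linked NS2B-NS3 at room temperature.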
# [7] = molecular target: Cytochrome P450 2D6 (Homo sapiens) (UniProt P10635); experiment: Cytochrome P450 family 2 subfamily D member 6 (CYP2D6) small molecule antagonists: luciferase biochemical (cell-free) qHTS assay (AID 1645840; active = well fitted curve in the direction sought with a large enough effect in the repeat runs; inconclusive = weak or mixed curves; inactive = no such curve, though single readings can be large; an effect the other way counts as inactive or inconclusive; note: nearly all actives have a fitted effect of over 55% in size)
# UniProt P10635, sequence (P10635 whole entry, looked up): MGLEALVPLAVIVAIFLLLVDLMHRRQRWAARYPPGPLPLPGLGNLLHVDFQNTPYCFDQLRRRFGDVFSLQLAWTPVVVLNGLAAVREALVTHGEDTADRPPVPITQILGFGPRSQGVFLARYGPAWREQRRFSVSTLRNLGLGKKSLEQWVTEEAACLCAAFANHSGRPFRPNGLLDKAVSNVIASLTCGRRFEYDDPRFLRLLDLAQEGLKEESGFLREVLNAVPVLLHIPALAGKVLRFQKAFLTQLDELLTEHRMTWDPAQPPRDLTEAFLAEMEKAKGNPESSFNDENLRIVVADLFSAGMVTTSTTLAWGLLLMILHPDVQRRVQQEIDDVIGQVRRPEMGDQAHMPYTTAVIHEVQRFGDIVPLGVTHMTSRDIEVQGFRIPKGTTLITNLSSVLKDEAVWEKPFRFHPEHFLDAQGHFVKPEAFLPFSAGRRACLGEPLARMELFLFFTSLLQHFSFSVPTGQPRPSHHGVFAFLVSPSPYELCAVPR
# Outline: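 P450-Glo luminescent screen: recombinant CYP2D6 enzyme–proluciferin substrate mix preincubated with compound 10 min at room temperature, then NADPH regeneration added for 1 h at room temperature. Detection reagent added for 20 min; luciferin light read as relative luminescence units.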
# [8] = molecular target: Cytochrome P450 2C9 (Homo sapiens) (UniProt P11712); experiment: Cytochrome P450 family 2 subfamily C member 9 (CYP2C9) small molecule antagonists: luciferase biochemical (cell-free) qHTS assay (AID 1645842; active = well fitted curve in the direction sought with a large enough effect in the repeat runs; inconclusive = weak or mixed curves; inactive = no such curve, though single readings can be large; an effect the other way counts as inactive or inconclusive)
# UniProt P11712, sequence (P11712 whole entry, looked up): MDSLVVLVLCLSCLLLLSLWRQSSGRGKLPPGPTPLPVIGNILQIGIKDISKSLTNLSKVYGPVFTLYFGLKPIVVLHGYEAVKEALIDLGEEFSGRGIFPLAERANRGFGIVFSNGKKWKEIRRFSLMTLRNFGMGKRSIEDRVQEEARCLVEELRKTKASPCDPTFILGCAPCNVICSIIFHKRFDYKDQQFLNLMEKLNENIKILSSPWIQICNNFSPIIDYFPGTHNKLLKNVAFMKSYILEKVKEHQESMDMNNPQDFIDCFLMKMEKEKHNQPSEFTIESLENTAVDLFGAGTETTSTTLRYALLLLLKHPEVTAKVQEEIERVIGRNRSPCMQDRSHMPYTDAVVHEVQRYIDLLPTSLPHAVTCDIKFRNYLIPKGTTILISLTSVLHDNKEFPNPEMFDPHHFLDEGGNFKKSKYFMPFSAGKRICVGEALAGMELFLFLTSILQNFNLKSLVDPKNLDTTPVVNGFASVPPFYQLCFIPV
# Outline: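 Luminescence, after 20 min with luciferin detection reagent, reflected CYP2C9 turnover during a 1 h NADPH-driven reaction at 37C. Enzyme-substrate mix contained 0.4% bovine serum albumin and was preincubated with compound 10 min at room temperature.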
# [9] = S16 Schwann cell PMP22 intronic element firefly luciferase assay (AID 624032); note: nearly all actives have a fitted effect of over 30% in size
# Outline: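 Luciferase reporter of PMP22 intronic-element expression in stably transfected S16 rat Schwann cells, read by ONE-Glo luminescence after 24 h compound exposure at 37 C. Activity scaled between DMSO (0%) and positive-control PTC124; concentration-effect curves quality-classified.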
# [10] = qHTS of pediatric cancer cell lines to identify multiple opportunities for drug repurposing: Primary screen for SK-N-SH cells (AID 1347098);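 note: DMSO served as neutral control and bortezomib at 2.3 µM as positive control; nearly all actives have a fitted effect of over 65% in size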
# Outline: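 Cells (500-1,000/well) rested 5 h, then received compounds for 48 h; metabolically active cells were measured by CellTiter-Glo luminescence. Final concentrations spanned up to 46 µM (MIPE, 11-point) or 0.59 nM-46 µM (NPC, 8-point) in primary screens, 11-point in follow-ups.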
# [11] = Primary qHTS for small molecule stabilizers of the endoplasmic reticulum resident proteome: Secreted ER Calcium Modulated Protein (SERCaMP) assay (AID 1508630); conditions: SH-SY5Y GLuc-SERCaMP (Gaussia luciferase released on ER calcium loss) secretion, thapsigargin, luminescence; activity change, negative = inhibition: at 38.4 µM (top of the series) unless noted
# Outline: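 GLuc-SERCaMP-expressing SH-SY5Y cells, pretreated 16 h with compound, are challenged with thapsigargin to empty ER calcium stores; after 4 h, coelenterazine is added directly to the medium and luminescence is imaged.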
# [12] = Drug repurposing screens with cells derived from glioblastoma tumor samples (AID 1345199); conditions: GBM patient neurospheres viability, ATP luminescence, 48 h; Potency: tumour line A unless noted; activity, negative = cell killing: at 46 µM (top of the series), tumour line A unless noted; note: nearly all actives have a fitted effect of over 40% in size
# Outline: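 Four patient lines of CD133+ GBM neurospheres were screened at several concentrations; hits were retested in those lines plus three slower-growing GBM lines, using 48-hour treatment and ATP-based viability.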
# CP215 = experiment: qHTS profiling for inhibitors of Plasmodium falciparum proliferation (AID 504749); note: nearly all actives have a fitted effect of over 60% in size; note: potency is the fitted concentration of half-maximal effect; conditions: P. falciparum in erythrocytes, SYBR Green DNA, 72 h; series mostly up to 28.7 µM
# Outline: (§2)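 Three-day growth assay of blood-stage parasites in erythrocytes (0.3% parasitemia, 2.5% hematocrit) at 37 C, 5% CO2, quantified by SYBR Green DNA staining after overnight detergent lysis.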
# TAB165 = experiment: as above; conditions: P. falciparum in erythrocytes, SYBR Green DNA, 72 h; series mostly up to 28.7 µM
# Outline: as §2
# W2 = experiment: as above; conditions: P. falciparum in erythrocytes, SYBR Green DNA, 72 h; activity, negative = inhibition: at 28.7 µM (top of the series)
# Outline: as §2
# [13] = qHTS of pediatric cancer cell lines to identify multiple opportunities for drug repurposing: Primary screen for A673 cells (AID 1347092); conditions: A673 Ewing sarcoma viability, CellTiter-Glo ATP luminescence, 48 h; activity change, negative = cytotoxic: at 46 µM (top of the series); note: nearly all actives have a fitted effect of over 45% in size
# Outline: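 A673 cells (500-1,000 cells/well in growth media) were pre-incubated 5 h at 37 degrees C, then exposed to compounds for 48 h. Viability was read as CellTiter-Glo luminescence; concentration-response curves came directly from the primary screen.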
# [14] = qHTS of pediatric cancer cell lines to identify multiple opportunities for drug repurposing: Primary screen for control Hh wild type fibroblast cells (AID 1347106)
# Outline: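 Viability after 48 h compound treatment at 37C, 500-1,000 cells/well, read as ATP luminescence with CellTiter-Glo. Primary screens used 11-point (MIPE, 0.78 nM-46 µM) or 8-point (NPC, 0.59 nM-46 µM) final concentrations; follow-up screens used 11-point dilutions.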
# [15] = molecular target: Protein phosphatase 1D (Homo sapiens) (UniProt O15297); experiment: RapidFire Mass Spectrometry qHTS Assay for Modulators of WT P53-Induced Phosphatase 1 (WIP1) (AID 1347424);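 note: amount of dephosphorylated VEPPL-S-QETFS peptide product formed by WIP1; potency is the fitted concentration of half-maximal effect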
# UniProt O15297, sequence (O15297 whole entry, looked up): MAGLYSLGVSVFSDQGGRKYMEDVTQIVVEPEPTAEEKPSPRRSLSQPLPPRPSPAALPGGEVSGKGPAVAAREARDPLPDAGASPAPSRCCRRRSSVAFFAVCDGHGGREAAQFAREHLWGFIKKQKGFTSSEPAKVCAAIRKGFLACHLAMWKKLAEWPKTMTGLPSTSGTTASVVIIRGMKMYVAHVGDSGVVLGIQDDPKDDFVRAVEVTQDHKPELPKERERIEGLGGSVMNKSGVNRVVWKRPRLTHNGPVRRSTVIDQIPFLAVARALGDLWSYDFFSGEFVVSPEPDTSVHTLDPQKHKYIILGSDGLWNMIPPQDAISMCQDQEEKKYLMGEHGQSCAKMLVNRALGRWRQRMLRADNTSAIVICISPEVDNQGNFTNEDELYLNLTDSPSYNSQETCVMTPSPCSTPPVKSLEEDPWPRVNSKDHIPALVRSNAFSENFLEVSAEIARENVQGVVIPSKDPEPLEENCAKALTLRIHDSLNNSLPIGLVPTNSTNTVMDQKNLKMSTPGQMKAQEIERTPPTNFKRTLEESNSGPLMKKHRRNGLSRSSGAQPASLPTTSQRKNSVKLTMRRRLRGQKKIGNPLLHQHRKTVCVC
# Outline: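 10 nM WIP1 + cpd, 1 h RT; + 2 uM VEPPL-pS-QETFS, 5 min RT; stop 0.5% formic acid; labelled product standard 1 uM; RapidFire MS. Buffer 50 mM Tris pH 7.5, 30 mM MgCl2, 1 mM TCEP.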
# 3D7 = experiment: qHTS profiling for inhibitors of Plasmodium falciparum proliferation (AID 504749); note: nearly all actives have a fitted effect of over 60% in size; note: potency is the fitted concentration of half-maximal effect; conditions: P. falciparum in erythrocytes, SYBR Green DNA, 72 h; series mostly up to 28.7 µM
# Outline: as §2
# 7G8 = experiment: as above; conditions: P. falciparum in erythrocytes, SYBR Green DNA, 72 h; series mostly up to 28.7 µM
# Outline: as §2
# AA1029 = experiment: as above; conditions: P. falciparum in erythrocytes, SYBR Green DNA, 72 h; series mostly up to 28.7 µM
# Outline: as §2
# CP192 = experiment: as above; conditions: P. falciparum in erythrocytes, SYBR Green DNA, 72 h; series mostly up to 28.7 µM
# Outline: as §2
# CP238 = experiment: as above; conditions: P. falciparum in erythrocytes, SYBR Green DNA, 72 h; series mostly up to 28.7 µM
# Outline: as §2
# CP286 = experiment: as above; conditions: P. falciparum in erythrocytes, SYBR Green DNA, 72 h; series mostly up to 28.7 µM
# Outline: as §2
# ECU = experiment: as above; conditions: P. falciparum in erythrocytes, SYBR Green DNA, 72 h; series mostly up to 28.7 µM
# Outline: as §2
# GB4 = experiment: as above; conditions: P. falciparum in erythrocytes, SYBR Green DNA, 72 h; series mostly up to 28.7 µM
# Outline: as §2
# PC15 = experiment: as above; conditions: P. falciparum in erythrocytes, SYBR Green DNA, 72 h; series mostly up to 28.7 µM
# Outline: as §2
# Tags give direction and shape of the fitted curve.
smiles,measurement,setting,value
Cc1cc(Cl)ccc1COc1ccnn1-c1cc(C(=O)O)ccn1,Potency,[1],inactive
same,Potency,Es-2,inactive
same,Potency,OV90,inactive
CC(C)=CC[C@H]1O[C@]2(O)C([C@H]3CCC4[C@@]5(C)CC[C@H](O[C@@H]6O[C@H](CO)[C@H](O)[C@H](O[C@@H]7O[C@H](CO)[C@@H](O)[C@H](O)[C@H]7O)[C@H]6O[C@@H]6O[C@@H](C)[C@H](O)[C@@H](O)[C@H]6O)C(C)(C)C5CC[C@@]4(C)[C@]3(C)[C@H]2O)[C@@]1(C)O (some centres undefined),"activity change, negative = cytotoxicity",[2],inactive: 9.26% [at 9.29 µM]
same,"activity change, negative = cell killing",[3],inactive: -7.27% [at 9.23 µM]
same,"activity change, negative = thiol reactive",[4],inactive: 12.2% [at 11.5 µM]
same,Potency,[5],"inconclusive: 5.66 µM [activator, partial curve, poor fit]"
same,"activity change, negative = cytotoxicity",Es-2,inactive: -1.48% [at 11.6 µM]
same,"activity change, negative = cytotoxicity",SKOV3,inactive: 28% [at 11.6 µM]
C/C=C(\C)C(=O)O[C@@H](C)[C@H]1CC[C@]2(O)C3CCC4C[C@@H](OC5CC(OC)C(OC6CC(OC)C(OC7CC(OC)C(OC8OC(C)C(OC9OC(CO)C(O)C(O)C9O)C(OC)C8O)C(C)O7)C(C)O6)C(C)O5)CC[C@]4(C)C3[C@H](O)[C@@H](O)[C@]12C (some centres undefined),"activity change, negative = cytotoxicity",[2],inactive: 2.39% [at 9.29 µM]
same,"activity change, negative = cytotoxicity",Es-2,inactive: 10.2% [at 6.55 µM]
same,"activity change, negative = cytotoxicity",PA-1,inactive: 3.34% [at 6.55 µM]
same,"activity change, negative = cytotoxicity",Tov-21-G,inactive: 13.7% [at 6.55 µM]
CCOC(=O)CNC(=O)[C@@H]1CCCN1C(=O)Cc1ccccc1 (PhAc-Pro-Gly-OEt),Potency,[6],"inconclusive: 0.224 µM [inhibitor, full curve, poor fit]"
same,Potency,[7],inactive
same,Potency,[8],"inconclusive: 37.9 µM [inhibitor, single point]"
same,Potency,Es-2,inactive
same,Potency,SKOV3,inactive
COc1cc(C(=S)N2CCOCC2)cc(OC)c1OC,Potency,[9],inactive
same,Potency,[2],inactive
same,Potency,[10],inactive
same,Potency,[11],inactive
same,Potency,Es-2,inactive
same,Potency,SKOV3,inactive
same,Potency,[12],inactive
same,Potency,CP215,inactive
same,Potency,TAB165,"inconclusive: 17.8 µM [inhibitor, single point]"
same,Potency,W2,inactive
COC(=O)c1cc(CN2CCN(C(=N)N)CC2)cc(C(=O)N2CCN(C(=O)c3ccc(C(=N)N)cc3)CC2)c1,Potency,[6],inactive
same,Potency,[1],inactive
same,Potency,Es-2,inactive
O=C(OCC(O)CO[C@@H]1O[C@H](C(=O)O)[C@@H](O)[C@H](O)[C@H]1O)c1ccccc1 (some centres undefined),Potency,[6],"inconclusive: 10 µM [inhibitor, single point]"
same,Potency,[1],inactive
same,Potency,[4],active: 6.56 µM
same,Potency,Es-2,inactive
CC1(C)SC2C(NC(=O)[C@H](NC(=O)N3CCNC3=O)c3ccccc3)C(=O)N2C1C(=O)O (some centres undefined),Potency,[6],"inconclusive: 39.8 µM [inhibitor, single point]"
same,Potency,[5],"inconclusive: 29.9 µM [activator, partial curve, poor fit]"
same,Potency,Es-2,inactive
same,Potency,OV90,inactive
same,Potency,SKOV3,"inconclusive: 39.8 µM [rising, single point]"
Cc1c(C(N)=O)cc([N+](=O)[O-])cc1[N+](=O)[O-],Potency,[13],inactive
same,Potency,[14],inactive
same,Potency,[15],"inconclusive: 10 µM [inhibitor, partial curve, poor fit]"
same,Potency,Es-2,inactive
same,Potency,OV90,inactive
same,Potency,3D7,inactive
same,Potency,7G8,inactive
same,Potency,AA1029,inactive
same,Potency,CP192,"inconclusive: 1.35 µM [activator, partial curve, poor fit]"
same,Potency,CP238,inactive
same,Potency,CP286,inactive
same,Potency,ECU,inactive
same,Potency,GB4,inactive
same,Potency,PC15,inactive
same,Potency,W2,"inconclusive: 0.757 µM [inhibitor, partial curve, poor fit]"
COc1cc(C(C)=O)ccc1O[C@@H]1O[C@H](CO[C@@H]2OC[C@@H](O)[C@H](O)[C@H]2O)[C@@H](O)[C@H](O)[C@H]1O,Potency,[3],inactive
same,Potency,[4],inactive
same,Potency,Es-2,"inconclusive: 20 µM [cytotoxic, single point]"
same,Potency,SKOV3,inactive

# Reference: PubChem BioAssay (NCATS)
